Laboratory results from publication PMC4336329 (PLoS ONE, 2015).
Out of some 310,000 compounds screened, about 14,000 (4.5%) showed an effect of 50% or more. Effects have a minus sign here. The list shows a part of the results.

Molecular target: human ether-à-go-go-related gene (hERG) potassium channel (human, UniProt Q12809)
Test: primary screen, population patch clamp on CHO cells stably expressing hERG
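Also: peak tail current of the secondary pulse compared with the same well before compound.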

Chain of human ether-à-go-go-related gene (hERG) potassium channel (Q12809 whole entry, looked up): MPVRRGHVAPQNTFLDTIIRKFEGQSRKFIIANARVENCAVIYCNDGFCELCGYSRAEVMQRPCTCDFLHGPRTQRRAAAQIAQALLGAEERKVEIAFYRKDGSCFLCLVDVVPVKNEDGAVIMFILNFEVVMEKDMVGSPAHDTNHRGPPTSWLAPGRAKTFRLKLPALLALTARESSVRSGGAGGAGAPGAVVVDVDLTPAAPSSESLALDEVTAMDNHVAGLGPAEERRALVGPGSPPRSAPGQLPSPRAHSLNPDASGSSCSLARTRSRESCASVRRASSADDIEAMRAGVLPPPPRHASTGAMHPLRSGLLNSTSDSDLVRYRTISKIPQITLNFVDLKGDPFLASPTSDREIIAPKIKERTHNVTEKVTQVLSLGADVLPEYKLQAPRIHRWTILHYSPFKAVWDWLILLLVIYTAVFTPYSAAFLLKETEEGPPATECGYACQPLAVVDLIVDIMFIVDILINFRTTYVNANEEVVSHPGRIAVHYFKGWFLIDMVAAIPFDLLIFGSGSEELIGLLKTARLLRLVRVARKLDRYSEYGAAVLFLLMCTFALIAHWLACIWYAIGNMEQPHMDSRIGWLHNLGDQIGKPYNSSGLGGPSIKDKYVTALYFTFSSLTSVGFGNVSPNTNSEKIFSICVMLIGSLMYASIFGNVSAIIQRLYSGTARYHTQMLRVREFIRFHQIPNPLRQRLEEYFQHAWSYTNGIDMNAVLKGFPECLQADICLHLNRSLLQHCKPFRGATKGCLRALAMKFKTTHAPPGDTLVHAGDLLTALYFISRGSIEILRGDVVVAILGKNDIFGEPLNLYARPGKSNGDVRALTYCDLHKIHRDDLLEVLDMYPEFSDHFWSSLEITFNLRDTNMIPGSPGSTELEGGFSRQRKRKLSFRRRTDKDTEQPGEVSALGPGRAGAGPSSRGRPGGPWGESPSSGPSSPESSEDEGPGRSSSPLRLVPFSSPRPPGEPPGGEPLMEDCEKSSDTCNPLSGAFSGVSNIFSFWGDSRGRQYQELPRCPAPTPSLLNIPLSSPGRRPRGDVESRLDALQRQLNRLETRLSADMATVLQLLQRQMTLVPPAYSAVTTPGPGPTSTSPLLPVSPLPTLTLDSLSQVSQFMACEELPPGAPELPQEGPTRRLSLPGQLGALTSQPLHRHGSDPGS

Row | SMILES | hERG current change (%, negative = inhibition) at 10uM [%]
1 | Cc1cc(C)n(CC(=O)NC2CCCCC2C)c(=O)c1C#N (stereo not shown) | -1.3
2 | COc1cc(CC(=O)N/N=C/c2ccc([N+](=O)[O-])cc2)c([N+](=O)[O-])cc1OC | -2.63
3 | O=C(O)c1ccc(Nc2ccc(Cl)c(Cl)c2)c([N+](=O)[O-])c1 | 20
4 | CC(C)N1C(=O)CCN(C=O)c2ccccc21 | 22.8
5 | Cc1cc(C)c(C(=O)c2ccc(C(=O)NC(C)(C)C)cc2)c(C)c1 | 13.1
6 | O=C(c1ccc(C(F)(F)F)cc1)N1CCC(=O)N(C(COCc2ccc(Cl)cc2)Cc2ccccc2)CC1 (stereo not shown) | -9.41
7 | CC(C)CCNC(=O)c1nnc(Cc2ccc(Cl)cc2)o1 | 11.4
8 | Cc1cccc(-n2ccc(=O)c(C(=O)O)n2)c1 | 24.7
9 | CC(=O)NCCn1c(SCC(=O)Nc2ccc(C)cc2)nc2ccccc2c1=O | 5.81
10 | Cc1ccc2[nH]c(=O)c(-c3nc4cc(C)ccn4c3NCc3ccco3)cc2c1 | -18
11 | Cn1cc(Cl)c(C(=O)NNC(=S)Nc2cccc(Cl)c2)n1 | 11.6
12 | CCCc1nc(SCC(=O)Nc2cc(C)on2)c2c(=O)n(C)c(=O)n(C)c2n1 | -2.26
13 | Cc1cc(C(=O)CSc2nnc(-c3cccs3)n2Cc2ccccc2)c(C)n1C | -46.9
14 | COc1ccc(F)cc1S(=O)(=O)NCCN1CCOCC1 | 14.8
15 | CC(C)(C)NC(=O)C(c1ccncc1)N(C(=O)CNC(=O)c1ccco1)c1ccc(F)cc1 (stereo not shown) | 7.74
16 | Oc1ccc(CN2CCc3ccccc3C2)c2cccnc12 | -48.8
17 | Cc1cc(C(=O)NCc2ccc(F)cc2)c2ccccc2n1 | 0.882
18 | Cc1ccc(NC(=O)Nc2ccc3c(c2)CCC3)c(C)c1 | 19.7
19 | Cc1ccc2c(Cl)c(C(=O)NC3CC3)sc2c1 | 8.68
20 | Oc1cccc2ccc(N3CCOCC3)nc12 | 11.8
21 | COC(=O)c1cc(S(=O)(=O)N2CCN(c3cc(C)ccc3C)CC2)c[nH]1 | -23.8
22 | CCCCc1nc(SCC(=O)N2CCOCC2)c2c(=O)n(C)c(=O)n(C)c2n1 | -18

Row | SMILES | hERG current change (%, negative = inhibition) at 10uM [%]
23 | CCC(C)NC(=O)CSc1ncccc1C(=O)O (stereo not shown) | 12.3
24 | CCOc1[nH]n(-c2ccccc2)c(=O)c1C=Nc1ccc(Cl)cc1 | 6.53
25 | COc1cccc(/C=N/NC(=O)c2nnn(-c3nonc3N)c2CN(C)c2ccccc2)c1 | 8.32
26 | Cc1ccc(S(=O)(=O)N2CCCC(C(=O)N3CCC4(CC3)OCCO4)C2)cc1 (stereo not shown) | -28.5
27 | CC1CCN(C(=O)CCC(=O)Nc2nnc(C3CCCCC3)s2)CC1 | 6.21
28 | C=C1CCC(C)C(C)(CCC2=CCOC2=O)C/C=C\C=C/1C(=O)O (stereo not shown) | 7.06
29 | CCOc1ccc(C(=O)N/N=C/c2cccc3cccnc23)cc1 | -15.5
30 | CCOC(=O)c1c(NC(=O)CSc2nnnn2-c2ccc3c(c2)OCO3)sc(C)c1C | 14.3
31 | CCOCCCNC(=O)c1ccc2c(c1)N(Cc1ccccc1)C(=O)CS2=O (stereo not shown) | 11.5
32 | CCOC(=O)Cn1ccc(NC(=O)COc2ccc(F)cc2F)n1 | -2.52
33 | O=C(Nc1ccc(F)cc1)N1CCN(C/C=C/c2ccccc2)CC1 | -68.6
34 | O=C(COC(=O)Cc1ccccc1)NC(=O)NC1CCCCC1 | 15.5
35 | CCOC(=O)COc1ccc2c(c1)c(C(C)=O)c(C)n2-c1ccccc1 | 15.1
36 | COc1ccc(CCNC(=O)c2c(C)noc2C)cc1 | -0.943
37 | Br.COc1ccc(C2=Nn3c(C)nnc3SC2)cc1 | 0.091
38 | Cn1c[n+](C)cc1C(O)c1ccccc1.[I-] (stereo not shown) | 14.6
39 | COC(=O)CCCNC(=O)c1ccc2[nH]c(C)c(C)c2c1 | 5.23
40 | COc1ccc(/C=C2\SC(=S)N(CCC(=O)NCCc3ccc(O)cc3)C2=O)cc1 | 15.4
41 | CCc1ccc(/C=C2\SC(=S)N(CCCC(=O)Nc3ccc(C(=O)O)cc3)C2=O)cc1 | 28.8
42 | Cc1cccc(/C(N)=N/OC(=O)c2ccc3c(c2)OCO3)c1 | -5.58
43 | Cc1cc(C)nc(NC(=S)Nc2ccc(Br)cc2Cl)c1 | -23.8
